{"source": "PubChem BioAssay AID1865", "about": "(National Center for Advancing Translational Sciences (NCATS), 2009)", "note": "Out of some 280,000 compounds screened, about 540 (0.19%) were called active. Not shown: some 2% with an inconclusive outcome. Calls come from the whole dose curve; as a rule, active = well fitted activation curve with a large enough effect; inconclusive = small, poorly fitted or top-dose-only effect; inactive = flat fitted curve, though single readings scatter. The list shows a part of the results, in another mix than the full data. The source holds several records for some structures; these can differ, active in one and inactive in another. Potency is the fitted concentration of half-maximal effect."}
{"assay": "Quantitative High-Throughput Screen for Regulators of Epigenetic Control; note: nearly all actives have a fitted effect of over 60% in size; for GFP activation: % of control where 0% means no effect", "details": "murine LDR cells, GFP reporter derepression, 30 h; series mostly up to 53.9 µM; GFP activation: at the top concentration", "excerpt": "NIH Molecular Libraries Screening Centers Network [MLPCN] NIH Chemical Genomics Center [NCGC] MLSCN Grant: 1 X01 MH079860-01 Assay Provider: Elisabeth D. Martinez, University of Texas SW Medical Center NCGC Assay Overview: The Locus Derepression (LDR) assay detects the derepression or induction of a GFP reporter that is stably integrated in a genomic region of murine cells that is presumably silenced. Transcription of the GFP reporter is controlled by a CMV promoter, which normally is constitutively active. However, this cell line, termed LDR, was selected for lack of constitutive production of GFP. GFP production can be induced by incubating the cells with histone deacetylase or DNA methyltransferase inhibitors (Martinez et al., 2006). Compounds that derepress or induce this reporter locus are identified by enumerating GFP positive cells using a laser-scanning microplate cytometer (Auld et al., 2006). This assay was screened against the MLSMR earlier (AID 597; (Johnson et al., 2008) and has been rescreened here against the expanded collection.\nNCGC Assay Protocol Summary: Three hundred LDR cells in 5 uL per well were dispensed into black, clear-bottom 1536-well plates. Twenty-three nL compound was transferred to the assay plate and cells were incubated 30 hours at 37 C. Medium was removed, cells were washed two times with PBS, and GFP-positive cells were enumerated as fluorescent objects between the sizes of 20 to 120 um width and depth using an Acumen Explorer. References Auld, DS, Johnson, RL, Zhang, YQ, Veith, H, Jadhav, A, Yasgar, A, Simeonov, A, Zheng, W, Martinez, ED, Westwick, JK, Austin, CP, Inglese, J (2006). Fluorescent protein-based cellular assays analyzed by laser-scanning microplate cytometry in 1536-well plate format. Methods Enzymol 414: 566-89. Johnson, RL, Huang, W, Jadhav, A, Austin, CP, Inglese, J, Martinez, ED (2008). A quantitative high-throughput screen identifies potential epigenetic modulators of gene expression. Anal Biochem 375: 237-48. Martinez, ED, Dull, AB, Beutler, JA, Hager, GL (2006). High-content fluorescence-based screening for epigenetic modulators. Methods Enzymol 414: 21-36."}
{"smiles": "O=C(O)c1ccccc1-c1c2cc(Br)c(=O)cc-2oc2[c]([Hg])c(O)c(Br)cc12", "GFP activation": "inactive: 6.4%"}
{"smiles": "N[C@@H](Cn1oc(=O)[nH]c1=O)C(=O)O", "Potency": "inactive"}
{"smiles": "CCCCC/C=C\\C/C=C\\C/C=C\\C/C=C\\CCCC(=O)NCc1ccc(O)c(OC)c1", "GFP activation": "inactive: 11.4%"}
{"smiles": "COc1cc(C[C@@H](C)N)c(OC)cc1I", "GFP activation": "inactive: 0.99%"}
{"smiles": "CC(C)OCCCNC(=O)c1c(N)n(CC2CCCO2)c2nc3ccccc3nc12", "note": "(stereo not given)", "GFP activation": "inactive: -19.9%"}
{"smiles": "CCN(CCCNS(=O)(=O)c1ccc2c(c1)oc(=O)n2C)c1cccc(C)c1", "GFP activation": "inactive: 0%"}
{"smiles": "CC1=CC(=O)C2=C(C)CC(O)C3C(C)C(=O)OC3C12", "note": "(stereo not given)", "GFP activation": "inactive: -7.55%"}
{"smiles": "C=C(C)c1cc2cc(C(C)=O)c(O)cc2o1", "GFP activation": "inactive: 0%"}
{"smiles": "CC1CC[C@@]2(OC1)OC1C(O)C3C4CC[C@H]5CC(O[C@@H]6O[C@@H](CO)[C@H](OC7OC(CO)C(O)C(OC8OCC(O)C(O)[C@H]8O)[C@@H]7O[C@@H]7OC(CO)[C@H](O)[C@@H](O[C@@H]8OC(CO)C(O)C(O)C8O)C7O)C(O)C6O)C(O)C[C@]5(C)C4CC[C@]3(C)C1C2C", "note": "(stereo not given in full)", "GFP activation": "inactive: -1.33%"}
{"smiles": "CC(C)[C@@]1(NC(=O)[C@@H]2C[C@H]3c4cccc5[nH]cc(c45)C[C@@H]3N(C)C2)O[C@@]2(O)[C@H]3CCCN3C(=O)[C@H](Cc3ccccc3)N2C1=O", "Potency": "inactive"}
{"smiles": "O=C1CCCC2C3CCCN4CCCC(CN12)C34", "note": "(stereo not given)", "GFP activation": "inactive: -0.962%"}
{"smiles": "CC(C)[C@@]1(NC(=O)[C@@H]2C[C@@H]3c4cccc5[nH]cc(c45)C[C@H]3N(C)C2)O[C@@]2(O)[C@@H]3CCCN3C(=O)[C@H](Cc3ccccc3)N2C1=O", "GFP activation": "inactive: -2.91%"}
{"smiles": "COC[C@H]1OC(=O)c2coc3c2[C@@]1(C)C1=C(C3=O)C2CCC(=O)[C@@]2(C)C[C@H]1OC(C)=O", "note": "(stereo not given in full)", "Potency": "inactive"}
{"smiles": "N#CC(C#N)=Cc1cc(O)c(O)c([N+](=O)[O-])c1", "Potency": "active: 17.8 µM"}
{"smiles": "Cc1ccc(/C=C2/C(=O)NC(=O)N(CCc3ccc(F)cc3)C2=O)o1", "GFP activation": "inactive: -1.09%"}
{"smiles": "CCCN1CCc2cc(O)cc3c2C1Cc1ccc(O)c(O)c1-3", "note": "(stereo not given)", "GFP activation": "inactive: 1.05%"}
{"smiles": "N#CC(C#N)=Cc1ccc(O)c(O)c1", "Potency": "inactive"}
{"smiles": "Oc1cc2c(cc1O)[C@H]1c3ccccc3CN[C@H]1CC2", "GFP activation": "inactive: -0.203%"}
{"smiles": "CC1=C(O)C(=O)[C@@H]2O[C@@H]2C1=O", "GFP activation": "inactive: 1.05%"}
{"smiles": "COc1cc(CC(C)N)c(OC)cc1I", "note": "(stereo not given)", "GFP activation": "inactive: -0.144%"}
{"smiles": "CC(C)c1ccc(N2C(=O)NC(=O)/C(=C/C=C/c3ccco3)C2=O)cc1", "GFP activation": "inactive: 0.935%"}
{"smiles": "CC(C)[C@@]1(NC(=O)[C@@H]2C[C@H]3c4cccc5[nH]cc(c45)C[C@@H]3N(C)C2)O[C@]2(O)[C@H]3CCCN3C(=O)[C@H](Cc3ccccc3)N2C1=O", "GFP activation": "inactive: -0.99% [at 16.9 µM]"}
{"smiles": "CCCN1CCc2cccc3c2C1Cc1ccc(O)c(O)c1-3", "note": "(stereo not given)", "GFP activation": "inactive: -0.108%"}
{"smiles": "CC(C)c1ccc(N2C(=O)NC(=O)/C(=C\\c3cnc(-c4ccccc4)nc3)C2=O)cc1", "GFP activation": "inactive: 2.42%"}
{"smiles": "COc1ccc(C[C@@H]2NC[C@H](O)[C@@H]2OC(C)=O)cc1", "GFP activation": "inactive: 1.37% [at 16.9 µM]"}
{"smiles": "CCCCNC(=O)Nc1ccc(C(O)(C(=O)OCC)C(F)(F)F)cc1", "note": "(stereo not given)", "GFP activation": "inactive: -2.88%"}
{"smiles": "CC[C@@H]1CN2CCc3cc(OC)c(OC)cc3[C@H]2C[C@@H]1C[C@H]1NCCc2cc(OC)c(OC)cc21", "GFP activation": "inactive: -0.295% [at 16.9 µM]"}
{"smiles": "O=C1NC(=O)N(Cc2ccccc2)C(=O)/C1=C\\C=C\\c1ccco1", "GFP activation": "inactive: 8.51%"}
{"smiles": "NC1CCc2cc(O)c(O)cc2C1", "note": "(stereo not given)", "Potency": "inactive"}
{"smiles": "C/C(O)=C(\\C#N)C(=O)Nc1cc(Br)ccc1Br", "Potency": "inactive"}
